# Test results: a collection of fitness landscapes (doi:10.1016/j.celrep.2020.107928)
# The full ranking holds about 81,000 sequences; the median of “one-hybrid fitness for binding parS DNA” is about -0.17, and the highest 2% start at about 0.51. This is one part of the list.
# B1: Caulobacter ParB omega fusion; a variant is named by its letters at X, in order, B8GW30 (parent)
# chain: MESVVVGEPGMSEGRRGLGRGLSALLGEVDAAPAQAPGEQLGGSREAPIEILQRNPDQPRRTFREEDLEDLSNSIREKGVLQPILVRPSPDTAGEYQIVAGERAWRAAQRAGLKTVPIMVRELDDLAVLEIGIIENVQRADLNVLEEALSYKVLMEKFERTQENIAQTIGKSXSHVANXMRLLXLPDEVQSYLVSGELTAXHARAIAAAADPVALAKQIIEGGLSVRETEALARKAPNLSAGKSKGGRPPRVKDTDTQALESDLSSVLGLDVSIDHRGSTGTLTITYATLEQLDDLCNRLTRGI
# Variants of: B1
# Assay: one-hybrid fitness for binding parS DNA (scaled: cognate 1, non-cognate 0); higher = stronger binding
# Details: with parS DNA site
# Summary of the method: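 Caulobacter ParB libraries with four specificity codons randomised were screened by bacterial one-hybrid selection in the E. coli USO strain, using a HIS3 reporter whose site lies 19 bp from the promoter. Selection ran for 48 hours at 37°C on M9 lacking histidine, with 0.1 mM IPTG and 5 mM 3-AT. Plasmids were Illumina-sequenced before and after selection, three replicate libraries were pooled, and variants with under 10 reads were dropped. Fitness is the log change in each variant's read ratio to wild type, rescaled against the cognate and non-cognate sites.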
row,Variant,one-hybrid fitness for binding parS DNA
1,WQGG,≤ 0.2
2,LRKD,≤ 0.2
3,HVHC,≤ 0.2
4,RMAN,0.46
5,EPHS,≤ 0.2
6,CAMG,≤ 0.2
7,WKVS,≤ 0.2
8,EENG,≤ 0.2
9,WYLG,≤ 0.2
10,SQQR,≤ 0.2
11,NLIV,≤ 0.2
12,MAFG,≤ 0.2
13,PYIL,≤ 0.2
14,FPKF,≤ 0.2
15,RSWA,0.546
16,GENV,≤ 0.2
17,PPDR,≤ 0.2
18,TFNC,≤ 0.2
19,PLAE,≤ 0.2
20,ILGC,≤ 0.2
21,MQQS,≤ 0.2
22,HNTV,≤ 0.2
23,SDGM,≤ 0.2
24,PPPY,≤ 0.2
25,GMWK,≤ 0.2

row,Variant,one-hybrid fitness for binding parS DNA
1,AGQY,≤ 0.2
2,LTPG,≤ 0.2
3,MDMG,≤ 0.2
4,WHCS,≤ 0.2
5,HPNT,≤ 0.2
6,YFEG,≤ 0.2
7,FCQS,≤ 0.2
8,STPN,≤ 0.2
9,IRPV,≤ 0.2
10,TLPP,≤ 0.2
11,LEID,≤ 0.2
12,IDLR,≤ 0.2
13,NYQC,≤ 0.2
14,ELDT,≤ 0.2
15,AVMP,≤ 0.2
16,LQDI,≤ 0.2
17,YHPM,≤ 0.2
18,DTML,≤ 0.2
19,CPYT,≤ 0.2
20,ETHW,≤ 0.2
21,PQPS,≤ 0.2
22,ATQS,≤ 0.2
23,TNCV,≤ 0.2
24,PYVQ,≤ 0.2
25,NFGT,≤ 0.2

row,Variant,one-hybrid fitness for binding parS DNA
1,WTGH,≤ 0.2
2,LSWL,≤ 0.2
3,QHQT,≤ 0.2
4,PGND,≤ 0.2
5,NLFG,≤ 0.2
6,QVRM,≤ 0.2
7,KSDT,≤ 0.2
8,DSDL,≤ 0.2
9,RILW,0.234
10,QTTN,≤ 0.2
11,QSKD,≤ 0.2
12,LDND,≤ 0.2
13,SLTD,≤ 0.2
14,VLDY,≤ 0.2
15,RAMD,≤ 0.2
16,DQTG,≤ 0.2
17,HPQC,≤ 0.2
18,KASY,≤ 0.2
19,DYRR,≤ 0.2
20,HDAD,≤ 0.2
21,PFSM,≤ 0.2
22,PHAC,≤ 0.2
23,KDGL,≤ 0.2
24,AFQT,≤ 0.2
25,DCSQ,≤ 0.2

row,Variant,one-hybrid fitness for binding parS DNA
1,YYDT,≤ 0.2
2,IFNG,≤ 0.2
3,QIEG,≤ 0.2
4,APGD,≤ 0.2
5,LSAG,≤ 0.2
6,SRHS,≤ 0.2
7,AGAT,≤ 0.2
8,RWYC,0.662
9,HVRN,≤ 0.2
10,HFTT,≤ 0.2
11,SQKP,≤ 0.2
12,RDDG,≤ 0.2
13,QASW,≤ 0.2
14,GACA,≤ 0.2
15,GAPE,≤ 0.2
16,MSRG,≤ 0.2
17,DHMN,≤ 0.2
18,LSCT,≤ 0.2
19,SKGW,≤ 0.2
20,THFC,≤ 0.2
21,SWKR,≤ 0.2
22,QVEV,≤ 0.2
23,RCLR,≤ 0.2
24,KSKR,≤ 0.2
25,SLYL,≤ 0.2

row,Variant,one-hybrid fitness for binding parS DNA
1,WWQR,≤ 0.2
2,IEKT,≤ 0.2
3,LLMG,≤ 0.2
4,MRRV,≤ 0.2
5,HWYG,≤ 0.2
6,LGNI,≤ 0.2
7,GPYG,≤ 0.2
8,GLNC,≤ 0.2
9,LNPT,≤ 0.2
10,RIPS,0.812
11,SLNR,≤ 0.2
12,RIWD,≤ 0.2
13,NRMG,≤ 0.2
14,EWAG,≤ 0.2
15,PCNR,≤ 0.2
16,ICMM,≤ 0.2
17,ISHK,≤ 0.2
18,PSVM,≤ 0.2
19,HWVR,≤ 0.2
20,YWKS,≤ 0.2
21,RPYI,≤ 0.2
22,IWNY,≤ 0.2
23,GAFN,≤ 0.2
24,PCSL,≤ 0.2
25,PWAR,≤ 0.2

row,Variant,one-hybrid fitness for binding parS DNA
1,MNYS,≤ 0.2
2,RTLC,0.982
3,RHKY,0.518
4,LSLR,≤ 0.2
5,NSTI,≤ 0.2
6,NSIP,≤ 0.2
7,DMAS,≤ 0.2
8,ETEA,≤ 0.2
9,AWDA,≤ 0.2
10,NRKV,≤ 0.2
11,TPHY,≤ 0.2
12,NANK,≤ 0.2
13,ELLR,≤ 0.2
14,MVPI,≤ 0.2
15,LASS,≤ 0.2
16,PEWV,≤ 0.2
17,CSPM,≤ 0.2
18,VSGK,≤ 0.2
19,STMW,≤ 0.2
20,ELDF,≤ 0.2
21,IADS,≤ 0.2
22,RRIP,≤ 0.2
23,EANV,≤ 0.2
24,LLPA,≤ 0.2
25,IVPG,≤ 0.2

row,Variant,one-hybrid fitness for binding parS DNA
1,TIWR,≤ 0.2
2,HTYY,≤ 0.2
3,SGLA,≤ 0.2
4,GETM,≤ 0.2
5,SECA,≤ 0.2
6,TDPE,≤ 0.2
7,PREF,≤ 0.2
8,FATR,≤ 0.2
9,KLNC,≤ 0.2
10,VMYV,≤ 0.2
11,QAVC,≤ 0.2
12,SKVS,≤ 0.2
13,SHFS,≤ 0.2
14,VQPM,≤ 0.2
15,RYVA,0.508
16,SLMT,≤ 0.2
17,LTNH,≤ 0.2
18,ETGL,≤ 0.2
19,LLDG,≤ 0.2
20,GRGR,≤ 0.2
21,TLIV,≤ 0.2
22,YPTG,≤ 0.2
23,HWLK,≤ 0.2
24,HHTM,≤ 0.2
25,PQLY,≤ 0.2

row,Variant,one-hybrid fitness for binding parS DNA
1,LHMT,≤ 0.2
2,DTTR,≤ 0.2
3,AHPD,≤ 0.2
4,CSVT,≤ 0.2
5,KINT,≤ 0.2
6,FTST,≤ 0.2
7,YQQY,≤ 0.2
8,ESPW,≤ 0.2
9,IIMK,≤ 0.2
10,AIIL,≤ 0.2
11,MSRC,≤ 0.2
12,IRGC,≤ 0.2
13,LDFW,≤ 0.2
14,APHG,≤ 0.2
15,DFNM,≤ 0.2
16,LCRT,≤ 0.2
17,GADW,≤ 0.2
18,GQWK,≤ 0.2
19,VLMY,≤ 0.2
20,RRPN,0.246
